# The supplement of paper PMC10338343
# ± gives the standard deviation. Whole data set: some 3,700 sequences, median “pre-steady-state target cleavage rate” near 0.02, cut for the highest 2% near 0.23. Only a part is listed here, and it is no random draw.
# Test system: MILI (PIWIL2) piRISC loaded with Kctd7 piRNA (26 nt)
# Assay: pre-steady-state target cleavage rate (min^-1); MIWI and MILI are mouse PIWI proteins and EfPiwi is from a freshwater sponge; tags in brackets are library labels; higher = faster piRNA-guided slicing of the target
# Settings: guide: Kctd7 piRNA 5'p-UGUUAAUCUCUCAGAGAAGGUGACAG; auxiliary factor: 500 nM mouse GTSF1
# Method: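 Cleave-'n-Seq: a library of target RNAs (target site embedded in constant flanks, ACAGCATTCCGCGTTAGTGATATCCG... 5' flank; DNA-blocked outside the site) at 0.1 nM was incubated with 1 nM active mouse MILI or MIWI piRISC (synthetic 5'-monophosphorylated piRNA guide) with or without 500 nM mouse GTSF1 at 33 °C for 1 min to 16 h. Uncleaved targets were sequenced and normalised to non-target controls, and the pooled three trials were fitted to a burst-and-steady-state model to give the pre-steady-state cleavage rate (min^-1; k3 is constrained to at most 1e-4). Sequence is the target site only; target names encode pairing extent (gX:gY) and contiguous / 1-mismatch / 2-mismatch / bulge geometry. Fits with R² ≤ 0 are excluded.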
row,Sequence,pre-steady-state target cleavage rate
1,UAGUGAGUAACCUUCUCUGAGAGAUUAACA,0.136 ± 0.011
2,UAGUGAGACACCUUCUGUGAGAGAUUAACA,0.156 ± 0.014
3,UAGUGACUCACCUUCUCUGAGAGUAUUAACA,0.108 ± 0.0092
4,UAGUGACAGACGUUCUCUGAGAGAUUAAGA,0.0102 ± 0.0047
5,UAGUGUGUGACCUACUCUGAGAGAUUAACA,0.15 ± 0.014
6,UAGUGACACACCUUCUCGAGAGAUUAACA,0.0266 ± 0.011
7,UAGUGUGUCACCUUCUCUGAUGAGAUUAACA,0.0585 ± 0.02
8,UAGUCUGUGAGCUUCUCUGAGAGAUUAACA,0.119 ± 0.0055
9,UAGUCUGACAGCUUCUCUGAGAGAUUAACA,0.114 ± 0.0076
10,UAGUCUGUCACCUUCUCUGAGAGCAUUAACA,0.175 ± 0.013
11,UAGUGACACACCUACUCUGAGAGAUUAUGA,0.00594 ± 0.0034
12,UAGUGACAGACCUAUCUCUGAGAGAUUAACA,0.0833 ± 0.01
13,UAGUGACUCACCUUCUCUGAGAGAUUUAACA,0.202 ± 0.017
14,UAGUGUGUCACGUUCUCUGAGAGAAUAACA,0.0657 ± 0.018
15,UAGUCUGUCACCAUCUCUGAGAGUUUAACA,0.119 ± 0.021
16,UAGUGACACUCCUUCUCUGAGUGAUUAACA,0.00415 ± 0.0032
17,UAGUGACAGUGCUUAUCUGAGAGAUUAACA,0.0166 ± 0.005
18,UAGUCUGUCACCUUCUGUGUGAGAUUAACA,0.0325 ± 0.0037
19,UAGUGUGUCACCUUCUCUGAGAGAUUCAACA,0.219 ± 0.038
20,UAGUGAGUCUCCUUCUGUGAGAGAUUAACA,0.0996 ± 0.017
21,UAGUCUGUCACCUUCUCUGAGAAGAUUAACA,0.0626 ± 0.01
22,UAGUGACAGUCCUUCUCUGAGACAAUAACA,< 0.0001
23,UAGUGACAGUCCUUCUGUGAGAGAUUUACA,0.00912 ± 0.0026

row,Sequence,pre-steady-state target cleavage rate
1,UAGUGACACACCUUCACUGAGAGAUUAACA,0.13 ± 0.0096
2,UAGUCUGUCACGAACUCUGAGAGAUUAACA,0.0804 ± 0.0054
3,UAGUGACACACCUACUCUGAGAGAUUAUCA,0.0653 ± 0.015
4,UAGUGACUCACCUUCUCUGAGAGAUUCAACA,0.221 ± 0.035
5,UAGUGACACACCUUCUCUCACAGAUUAACA,0.0114 ± 0.0049
6,UAGUGUGUCACCUUCACUGAGAGUUUAACA,0.0686 ± 0.02
7,UAGUGAGUCUGCUUCUCUGAGAGAUUAACA,0.0821 ± 0.0062
8,UAGUGACACACCUUCUCUCAGAGAUAAACA,0.0174 ± 0.0075
9,UAGUGACAGACCUUCUCCGAGAGAUUAACA,0.0676 ± 0.021
10,UAGUCUGACACGUUCUCUGAGAGAUUAACA,0.167 ± 0.012
11,UAGUCACUCACCUUCUCUGAGAGAUAUUGA,0.00509 ± 0.0038
12,UAGUGACAGACCUUCUAUGAGAGAUUAACA,0.037 ± 0.015
13,UAGUGACACACCUUCACUCAGAGAUUAACA,0.0278 ± 0.0075
14,UAGUCUGUCACCUACUCUGAGAGUUUAACA,0.149 ± 0.024
15,UAGUGACAGUCGUUCUCUCAGAGAUUAACA,0.00831 ± 0.0022
16,UAGUGACAGUGGAACUCUGAGUCUUUAACA,0.109 ± 0.061
17,UAGUGACAGACCAUCUCUGAGAGAUUAAGA,0.00579 ± 0.0032
18,UAGUCUGUGACCUUCUCUGAGAGAUAAACA,0.0621 ± 0.0085
19,UAGUCUGAGACCUUCUCUGAGAGAUUAAGA,0.0455 ± 0.0084
20,UAGUGAGUCACCUACUGUGAGAGAUUAACA,0.108 ± 0.0097
21,UAGUCUGUCACCUUCUCUUAGAGAUUAACA,0.0866 ± 0.0084
22,UAGUGACAGUGCUUCUCUGUGAGAUUUACA,0.00788 ± 0.0032
23,UAGUGACAGACCUUCUGUGAGACAUUAACA,0.0225 ± 0.0086

row,Sequence,pre-steady-state target cleavage rate
1,UAGUCUGUCGACCUUCUCUGAGAGAUUAACA,0.0375 ± 0.011
2,UAGUGACUCACCUUCUCUGAGAGAUUAAAA,0.0677 ± 0.02
3,UAGUCUGUCACCUACUGUGAGAGAUUAACA,0.079 ± 0.0066
4,UAGUGACUCACCUUCUCUGAGAGACUAACA,0.112 ± 0.019
5,UAGUCUGUCACGUUCUCUGAGAGAUAAACA,0.0413 ± 0.0083
6,UAGUGACACACCUUGUCUGAGAGAUUAUCA,0.0156 ± 0.0081
7,UAGUGACAGACCUUCUCUGUGAGAUUAAGA,0.0069 ± 0.0047
8,UAGUGUGUCACCUUCUCUGAGAGAUAACA,0.0605 ± 0.02
9,UAGUGUGUCUCCUUCUCUGAGAGAUUUACA,0.0178 ± 0.0072
10,UAGUGACUCACCUUCACUGAGACAUUAACA,0.0588 ± 0.0084
11,UAGUCUGUCAGGAUCUCUGAGAGAUUAACA,0.0932 ± 0.0052
12,UAGUGAGUCACCUUCUCUGAGACAUUAACA,0.0977 ± 0.018
13,UAGUGACUCACCUACUCUGAGAGAUUAAGA,0.0496 ± 0.013
14,UAGUCUGUCACCUGUCUCUGAGAGAUUAACA,0.179 ± 0.0096
15,UAGUCUGUCACCUUCUCUGAGAAAUUAACA,0.143 ± 0.018
16,UAGUGACAGUGCUUCUCUGAGAGAUUAACC [g2:g19:cont:t1C],0.0223 ± 0.0053
17,UAGUGAGUCUGCUUCUCUGAGAGAUUAUGA,0.00387 ± 0.0021
18,UAGUGACAGUGGUUCUGUGAGAGAUUAACA,0.00551 ± 0.0014
19,UAGUGUGUCACCUUCUCUGAGAAGAUUAACA,0.0498 ± 0.0089
20,UAGUGACAGACCUUCUCUGAGAGAUUAAGCA,0.0746 ± 0.022
21,UAGUGUGUCAGCUUCUCUGAGAGAAUAACA,0.112 ± 0.023
22,UAGUGAGACACCUUCUCUGAGAGAAUAACA,0.0568 ± 0.019
23,UAGUGACACACCAUCUCUGACAGAUUAACA,0.0227 ± 0.0066

row,Sequence,pre-steady-state target cleavage rate
1,UAGUGACAGACCUUCUCUGAGAGAUUAUGA,0.00603 ± 0.0045
2,UAGUCUGACACCUUCUCUGAGAGAUUAUCA,0.109 ± 0.014
3,UAGUGACAGUGGAAGAGACUGAGAUUCACA,< 0.0001
4,UAGUGACAGUGCUUCUCUGAGAGAUAAACA,0.00446 ± 0.0028
5,UAGUGAGUCACCUUCUCUGUGAGUUUAACA,0.0267 ± 0.007
6,UAGUGACUCACCUUGUCUGUGAGAUUAACA,0.0255 ± 0.0057
7,UAGUGACACACGUUCUCUGAGAGAUUUACA,0.0612 ± 0.01
8,UAGUGACAGUGGAUCUCUGUGAGAUUAACA,< 0.0001
9,UAGUGACAGUCCUUCUCUGAGAGGUUAACA,0.0707 ± 0.009
10,UAGUGAGUCAGGAUCUCUGAGAGAUUAACA,0.029 ± 0.0043
11,UAGUCUGUCACCUUCACUGAGAGAUAAACA,0.116 ± 0.024
12,UAGUGAGUCACCUUCUGUGACAGAUUAACA,0.0506 ± 0.012
13,UAGUGAGUCACCUUCUCUCAGAGAUUAUGA,0.0141 ± 0.0066
14,UAGUGUGUCCCUUCUCUGAGAGAUUAACA,0.153 ± 0.016
15,UAGUGUGUCAGCUUCUCUGAGAGAUUAUGA,0.0157 ± 0.0056
16,UAGUCUGUCACCUUGUCUGAGUGAUUAACA,0.00524 ± 0.0025
17,UAGUGACACACCUUCUCUGAGAGAUUACCA,0.0859 ± 0.016
18,UAGUGACAGUGGAAAUCUGAGAGAUUAACA,0.00342 ± 0.001
19,UAGUGACUCACCUUCACUGACAGAUUAACA,0.0378 ± 0.0055
20,UAGUGACUCACCUGCUCUGAGAGAUUAACA,0.134 ± 0.013
21,UAGUCUGUCACCUUGUCAGAGAGAUUAACA,0.0486 ± 0.0086
22,UAGUCUGUCACCAUCUCUGAGUGAUUAACA,0.00551 ± 0.0028
23,UAGUGUGUCUCCUUCUGUGAGAGAUUAACA,0.12 ± 0.014
